Test results as given in article PMC12040169 (PLOS Biology, 2025).
This is one part of the list.

system: T1, C. trachomatis L2/434/Bu expressing GFP (CTL2-GFP); parameters: species or system HeLa; C. trachomatis total inclusion area by high-content imaging, normalised to DMSO; details: total inclusion area; 28.5 h, 10 µM; inhibitor
T1 construct: L2/434/Bu GFP intracellular growth in HeLa cells
Outline: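 After bulk GFP and resorufin fluorescence reads, cells were fixed, stained with Hoechst and imaged by high-content microscopy. Inclusion area and number (GFP) stood in for chlamydial growth, nuclei count (Hoechst) for host cell viability. MICs were derived as for the bulk readout.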

Compound	% of control remaining
Cc1noc(C)c1C(=O)Nc1sc2c(c1C(=O)NCc1ccco1)CCCCCC2 [CBK268112]	106.621
Cc1noc(C2(O)CCN(Cc3cccc(Cl)c3F)C2)n1 (stereo not shown) [CBK304748]	5.797
Cc1nccn1CC1(O)CCN(CC(C)c2ccccc2)CC1 (stereo not shown) [CBK284954]	84.5774
Cc1nnc(SCCOc2ccc(Cl)c(C)c2)s1 [CBK026160]	57.0927
CCn1c(=O)n(CC(C)(C)O)c2cc(S(=O)(=O)N(C)C)ccc21 [CBK304893]	73.7772
Cc1ccc(C(=O)CCC(=O)N2CCCC2c2ccc(F)cc2)cc1 (stereo not shown) [CBK297885]	81.3099
CCN(Cc1ccncc1)C(CC1CCCCC1)c1ccccc1 (stereo not shown) [CBK061639T]	79.5399
Nc1ncc(-c2ccc(N3CCOCC3)cc2)nc1N1CCN(CCO)CC1 [CBK063394]	114.735
CCc1nn(CC(=O)N2CCC(C)CC2)c(=O)c2cc3occc3n12 [CBK283675]	101.139
O=C(Cc1c(O)c2ccccc2[nH]c1=O)NCc1ccc(Cl)cc1 [CBK160317]	90.0507
Cc1nc2ccc(NC(=O)CC3CCN(S(=O)(=O)c4cccc(F)c4)CC3)cc2[nH]1 [CBK285903]	104.491
CC(=O)c1ccc(S(=O)(=O)NCC2CC2)cc1 [CBK044440]	124.519
O=C(CCc1ccccc1)N1CCC(c2n[nH]c3ncccc23)CC1 [CBK284906]	93.3733
CCN(Cc1ccc(C#N)cc1F)C(=O)C(NC(=O)OC)C(C)C (stereo not shown) [CBK306372]	88.6353
CCc1ccc2nc3c(cc2c1)CNCCO3 [CBK281940]	88.4397
O=C(O)C1(Cc2cccc(-c3cccs3)c2)CCCNC1 (stereo not shown) [CBK281688]	79.7509
Cc1ccc(CNC(=O)CSc2nnc(-c3ccncc3)n2-c2ccccc2)cc1 [CBK266654]	118.876
COc1ccc(-c2cnc(N)c(NC3CCOCC3)n2)c(OC)c1OC [CBK063844]	44.9356
COc1ccccc1CN(C)C(C)C(=O)Nc1ccc(S(N)(=O)=O)cc1 (stereo not shown) [CBK305839]	54.7169
O=C(NCCNc1cnccn1)c1ccc(Br)cc1F [CBK305639]	101.556
CC(=O)Nc1ccc(S(=O)(=O)NC2(C(F)(F)F)C(=O)Nc3c2c(=O)[nH]c(=S)n3Cc2ccco2)cc1 (stereo not shown) [CBK268395]	81.0272

Compound	% of control remaining
CC(C)[C@H](CO)Nc1cncc(-c2cccc(N(C)C)c2)n1 [CBK065547]	128.611
CN1CCC(N(C)C(=O)NCc2c(Cl)cccc2Cl)C1 (stereo not shown) [CBK156014]	128.433
CC(C)(C)C(=O)c1cnc2sc3ccccc3n12 [CBK016512]	76.6671
CCOC(=O)C(NCc1nc(-c2cccc(C(F)(F)F)c2)no1)C(C)C (stereo not shown) [CBK305445]	117.827
Cc1sc2nc(SCCCC(=O)NCCO)nc(N)c2c1C [CBK264482]	99.8038
CSc1ccccc1CNC(=O)Cn1nnc(-c2ccc(CN3CCC(C)CC3)cc2)n1 [CBK144573C]	83.6769
O=C(CSc1cccs1)Nc1nccs1 [CBK019601]	81.0785
COc1cccc(CC(=O)Nc2ncccc2OCCCC#N)c1 [CBK304961]	47.3117
O=C(NCc1cccc(C(F)(F)F)c1)N1CCN(c2ccc(F)cc2)CC1 [CBK156390]	104.479
CN(C)c1nc(Cl)c(C=Cc2cc(C(=O)O)c3ccccc3n2)s1 [CBK298272]	142.471
CC(NC(=O)c1ccccc1)C(=O)OCn1nnc2ccccc2c1=O (stereo not shown) [CBK297001]	73.4863
CN1CCC2(CCC1=O)CC(NC(=O)C1CC1)c1ccccc1O2 (stereo not shown) [CBK284455]	57.6598
O=C(Cc1ccccc1)N1CCN(Cc2ccc3ccccc3c2)CC1 [CBK263037]	83.6842
O=C(O)c1nsnc1C(=O)O [CBK278311K]	90.3455
COc1cc(-c2cnc(N)c(NCc3ccncc3)n2)cc(OC)c1OC [CBK063646]	142.861
Cc1ccc(-c2n[nH]c(=S)n2CCC(=O)N(C)Cc2ccc(N3CCCCC3)cc2)cc1 [CBK297904]	58.6739
Cc1ccc(-c2cc(C(=O)N(C)Cc3cccn3C)[nH]n2)o1 [CBK283324]	82.1404
CC(C)(C)C(=O)/N=c1/[nH]nc(-c2cccnc2)s1 [CBK288203]	101.311
COc1ccc(C(CC(=O)O)c2ccc3c(c2)OCCO3)cc1OC (stereo not shown) [CBK287121]	120.144
Nc1nn2c(c1Cc1c(Cl)cccc1Cl)OC(=O)CCC2=O [CBK093439]	80.1122
CC(=O)N1CCCc2cc(NC(=O)NCCc3cnn(C)c3)ccc21 [CBK304937]	27.5025

Compound	% of control remaining
O=C(O)CNS(=O)(=O)c1ccc(-c2ccccc2)cc1 [CBK034457]	113.527
Cc1ncccc1COC(=O)N1c2ccccc2CCC1C (stereo not shown) [CBK200204]	52.5084
CCn1cc(CN(C)Cc2nccs2)c2cc(C(=O)O)ncc21 [CBK306512]	67.7723
N#Cc1ccc(-c2cncc(NC3CCC(O)CC3)n2)cc1 (stereo not shown) [CBK166007T]	76.378
N#C/C(=C/c1cc(Cl)c(OCc2ccc([N+](=O)[O-])cc2)c(Cl)c1)c1ccc(C(=O)O)cc1 [CBK269098]	87.507
Cn1ccnc1Sc1nc2ccccc2nc1C(F)(F)F [CBK093778]	84.7712
CCc1onc(-c2ccccc2)c1C(=O)NCCO [CBK160434]	88.0671
O=C(NCc1ccccc1)c1ccc2nc[nH]c2c1 [CBK143739]	102.158
Cc1ncccc1COC(=O)N1CCC(C(F)(F)F)CC1 [CBK200154]	86.8901
Cc1ccc(NC(=O)Cn2cnc3c(cnn3-c3ccc(C)cc3)c2=O)cc1 [CBK287534]	112.034
COc1ccnc(N2CCC(Oc3cccnc3N(C)C)C2)n1 (stereo not shown) [CBK304699]	53.6088
Cn1nc(C2CCCC2)cc1[C@H]1CN2CC[C@H]1C[C@@H]2CNS(C)(=O)=O [CBK288742]	88.5641
COc1ccc([C@@]23CC[C@@H](NS(=O)(=O)c4ccc5ccccc5c4)C[C@@H]2N(C)CC3)cc1OC [CBK056848T]	89.3241
Cc1cc(C(=O)NCCC(=O)O)c2ccccc2n1 [CBK286573]	76.8152
Cc1nc(C)c(C(=O)N2C3CCC2c2cc(Cl)cnc2C3)s1 (stereo not shown) [CBK284953]	89.0123
COc1ccccc1NC(=O)N1C[C@@H]2C[C@H](C1)c1c(-c3ccccc3F)ccc(=O)n1C2 [CBK289192]	99.4223
O=C1CNC(=O)C2(C/C=C/C[C@H]3COCC[C@@H]3N1)CCN(C(=O)c1cccc(Cl)c1)CC2 [CBK292066]	105.248
Cc1cccn2cc(CCNC(=O)CN(C)C3CCSC3)nc12 (stereo not shown) [CBK304027]	95.4641
CC(C)NC(=O)NC[C@H]1C[C@@H]2CCN1C[C@@H]2c1cc(C2CCCCC2)nn1C [CBK289107]	89.0111
Cn1c2c(c3ccccc31)C(=O)NCC2 [CBK003517]	99.9961
CCCn1ccnc1SCC(=O)Nc1ccc(N(C)C)cc1 [CBK304996]	71.0494

Compound	% of control remaining
Cc1cccc(N(CC(=O)Nc2cccnc2)S(=O)(=O)c2ccc(Cl)cc2)c1 [CBK268676]	102.159
COc1cc(C2C(C(=O)c3cccs3)=C(O)C(=O)N2Cc2cccnc2)ccc1O (stereo not shown) [CBK264605]	91.2989
Cc1sc2ncn(CC(=O)Nc3cccnc3)c(=O)c2c1C [CBK306057]	58.2524
COc1ccc(S(=O)(=O)NCCCN2CCOCC2)c(Cl)c1Cl [CBK269792]	80.3792
CSCCC(NC(=O)c1ccccc1NC(=O)c1ccc(C)cc1)C(=O)O (stereo not shown) [CBK296067]	85.1723
O=C(O)c1ccc2c(c1)C1C=CCC1C(c1cccc([N+](=O)[O-])c1)N2 (stereo not shown) [CBK287008]	101.204
N#CC(C(=O)CN1CCCC1)c1ccccc1 (stereo not shown) [CBK269333]	114.607
O=C(Nc1ncnc2c1ccn2C1CC(O)C(CO)O1)c1ccccc1 (stereo not shown) [CBK201289]	105.43
N#CCCN(C(=O)NCCOc1ccccc1)C1CCCCC1 [CBK156374]	105.921
O=C(O)CNC(=O)c1ccc(S(=O)(=O)N2CCCC2)cc1 [CBK267434]	99.0585
CC(=O)Nc1cccc(-c2nc(-c3ccc(C#N)cc3)cnc2N)c1 [CBK113659]	82.488
COc1nc2ccccc2nc1CCC(=O)O [CBK269356]	98.8075
O=C(CNc1ccc2ccccc2c1)N/N=C/c1cc2c(cc1[N+](=O)[O-])OCO2 [CBK261126]	38.0361
CCc1nc2ccc(NC(=O)c3csc(C(C)=O)c3)cc2[nH]1 [CBK282538]	98.0049
Cc1cc(C)n(CC(=O)Nc2nc(CN3CCC(C)CC3)cs2)n1 [CBK305592]	42.7483
OCc1ccccc1-c1cncc(Nc2cccc(Cl)c2)n1 [CBK065400]	82.9692
O=S1(=O)CCN(Cc2ccc3c(c2)OCO3)CC1 [CBK074780]	100.974
CC(C)(C)O/N=C/c1cccnc1 [CBK015761C]	70.8926
O=C(c1ccc(-n2ccnc2)c(-n2cccc2)c1)N1CCSCC1 [CBK285364]	115.032
